# According to the supplement of paper PMC3334620:
# Over roughly 33,000 sequences, “E-score (-0.5 to 0.5)” has its median near -0.017; the highest 2% begin near 0.3. Some of the results follow.
# Target: T1, Sut1 (UniProt P53032)
# T1 sequence: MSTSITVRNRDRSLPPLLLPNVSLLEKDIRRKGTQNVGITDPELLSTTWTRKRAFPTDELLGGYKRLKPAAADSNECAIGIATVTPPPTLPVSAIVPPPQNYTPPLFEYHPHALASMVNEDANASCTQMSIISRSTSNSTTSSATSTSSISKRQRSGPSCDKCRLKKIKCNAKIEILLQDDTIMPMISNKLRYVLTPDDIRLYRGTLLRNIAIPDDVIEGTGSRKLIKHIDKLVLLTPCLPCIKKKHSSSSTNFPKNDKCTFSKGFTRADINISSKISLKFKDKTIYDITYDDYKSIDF
# Experiment: PBM E-score (8-mer binding enrichment) (E-score (-0.5 to 0.5)); higher = stronger / more preferred TF binding; most listed sequences are background and not binding sites
# Conditions: protein concentration: 200 nM; construct: GST-full length
# Procedure, shortened: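 PURExpress in vitro transcription/translation supplied GST-tagged yeast transcription factors, either full-length or DNA-binding domain. Applied at about 100-200 nM to universal all-10-mer Agilent arrays double-stranded by primer extension, the bound protein was detected with fluorescent anti-GST. E-scores, modified Wilcoxon-Mann-Whitney statistics, were given by the Universal PBM Analysis Suite to ungapped eight-base words pooled with their reverse complements after masliner normalisation.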
row,Sequence,PBM E-score
1,AAGTTACA,-0.00447
2,AGTCGCGA,0.139
3,TAGTGTGA,0.0274
4,AGCTATCC,-0.181
5,CCCGAGGC,-0.226
6,ACGGGTTA,-0.172
7,CCAACTCG,-0.141
8,ATGCCAAG,-0.0519
9,GTACACTA,-0.06
10,TCCATAGA,0.00973
11,CCTGCCGA,-0.085
12,CTATGGCC,-0.141
13,CCCGGGAC,0.00314
14,CTTGTGTC,-0.0867
15,TCACAAAA,0.185
16,AGCACGGA,0.292
17,CCCTGGAA,-0.272
18,CGTTGTCC,0.11
19,ACGTATCC,-0.251
20,TGGATAAA,0.263
21,ACACACCC,-0.137
22,ACCTCACA,-0.0658
23,CACCGCGG,0.146
24,ACCTCGAG,0.0831
25,CATTATTA,0.216

row,Sequence,PBM E-score
1,CGGACCGA,0.244
2,CCTTAAAC,-0.059
3,GAGTCTCA,-0.00234
4,AGACATTA,0.0395
5,TGGGGACA,-0.0716
6,ATTGTGAA,0.164
7,CAAAGGCG,-0.247
8,GCAAGGTA,-0.00579
9,GGATACAA,0.0825
10,CCTATGAA,-0.202
11,CAGCCCCA,-0.231
12,CAAGATCA,-0.0348
13,ACCCCACC,-0.072
14,AAATCCCT,0.0459
15,ATAATCTG,0.0727
16,AGGATCAA,0.126
17,CGACTCAG,-0.0587
18,ACTTACTA,0.118
19,ATACCCCA,-0.13
20,CTTTCTAA,0.17
21,AATCTGGA,-0.0446
22,AGCGGCTC,-0.00165
23,AATACATC,0.159
24,CCGGATAC,0.104
25,GGCCATAA,-0.114

row,Sequence,PBM E-score
1,CGAACGAG,-0.0896
2,GTCGTTGA,-0.0946
3,CCATTAGG,-0.249
4,GGCGGCCC,-0.177
5,AACATTCA,0.0304
6,CGAGAGAG,0.024
7,AATACGAC,-0.0431
8,AAGGTACG,-0.0345
9,ACTTTGGG,-0.00343
10,GTGAATGA,0.123
11,CAGACTGC,-0.135
12,AACCCCTA,-0.206
13,GCCAGCGC,-0.186
14,ACTCGTAG,-0.0283
15,AGACCGCG,0.0201
16,ACAATTAC,0.0602
17,TCTAAGAA,0.205
18,ATACTTGA,0.0447
19,AGAGATAG,0.051
20,GCCGGGCA,-0.174
21,ACTGGTTG,0.173
22,ATCAACGG,0.0786
23,CAGATACC,-0.149
24,AGCCGATC,-0.00257
25,CCTATCAG,-0.0862

row,Sequence,PBM E-score
1,GAAAATGC,0.174
2,AGTCAGAC,-0.0551
3,AGAGCCTG,-0.216
4,GCAATGCA,-0.125
5,CCACCTGG,-0.324
6,ATTTGTGC,0.00055
7,CGTGGTAA,-0.115
8,ATGTTTCG,0.117
9,TAAGGAGA,0.131
10,ACCGCTAT,0.00679
11,CCCTTGAA,-0.103
12,ATCCACCG,0.105
13,CCTCTTTC,-0.118
14,GCGTGAGC,-0.0579
15,CAGTTTGG,-0.198
16,GTCCACCA,-0.0839
17,CGATATGC,0.0222
18,GGTTCTAA,0.156
19,CATTACAC,0.0751
20,CTCTAACA,-0.0483
21,CTGAAGGA,-0.15
22,CATTCTGG,-0.0878
23,AAGTGGCG,0.113
24,AGTAGTCC,0.296
25,ACCACGAT,-0.0444

row,Sequence,PBM E-score
1,GCTCGTGA,-0.0887
2,AATTCTTC,0.246
3,CTCTAGTA,0.0068
4,ATGTCGAA,0.156
5,ACCCACCA,-0.106
6,CATCCGGA,0.292
7,TACACTCA,0.0601
8,GGGGCGGA,0.0435
9,AATGAATG,0.223
10,CTTAGAAC,0.195
11,CATTAGAG,-0.0818
12,CCTCGGTC,-0.169
13,CTAAAACA,0.151
14,AGACTCAA,-0.0327
15,TGTTTTAA,0.253
16,CGAATGGA,-0.0926
17,ACGTTTAC,-0.115
18,ATTCCCGA,0.0496
19,AATTAAAA,0.2
20,CATACACA,0.101
21,GGGCACAC,-0.305
22,CACAGGCC,-0.198
23,CATTTCGA,0.232
24,GAGCGGGA,0.00658
25,TCATTGAA,0.151

row,Sequence,PBM E-score
1,CTGGAATC,-0.0428
2,AAATTATA,0.351
3,CATCTGGC,-0.181
4,AAGCCAAA,-0.0102
5,ACGTTGAG,0.00881
6,AACTATGC,0.189
7,CTTTAACC,-0.064
8,CCGGAAGG,0.169
9,TAGAATAA,0.207
10,ATAAACTG,0.047
11,CATAGCCC,-0.196
12,CTTGGTGA,0.0672
13,CCTGAGTA,0.0256
14,AATTAAGC,0.101
15,CTCAGTAA,-0.1
16,CTGGCCGC,-0.352
17,GAATAAGA,0.132
18,AGCGATGG,-0.183
19,AAATGCTG,-0.094
20,GAGACTAC,-0.0905
21,AAGACTGA,-0.0309
22,CCGAAAAC,0.164
23,GTACTAAC,0.0256
24,CATCAAGG,-0.223
25,GTCGCTGA,-0.159

row,Sequence,PBM E-score
1,GACCACAA,-0.0924
2,AATGGTAG,0.261
3,CCAATTAC,0.142
4,ACATACAG,0.148
5,CTCCGTGA,0.407
6,ACCTACAG,0.0362
7,ATGCCCCC,-0.387
8,AACCCCCC,-0.455
9,CTAACTGC,-0.0429
10,CGCAGAGC,-0.103
11,GCATCTTA,0.166
12,CATCGTGC,-0.192
13,ATCCCGCA,-0.134
14,AACCGTCG,-0.0536
15,CCTATGCG,-0.0272
16,GTCCTTGA,-0.0739
17,AAAAGCGA,0.191
18,GCTTAGGA,0.0639
19,ATTATAAG,0.193
20,GAGGGCAC,-0.211
21,CCATTACA,0.184
22,CGGAGCCA,0.294
